Experimental data: ChEMBL document CHEMBL4888484, “Replenishing the malaria drug discovery pipeline: Screening and hit evaluation of the MMV Hit Generation Library 1 (HGL1) against asexual blood stage Plasmodium falciparum ,using a nano luciferase reporter read-out” (2022)
Out of some 150,000 compounds screened, about 540 (0.36%) showed an effect of 50% or more. Some of the results follow.

tested on: Plasmodium falciparum; experiment: Primary screen in NF54 nanoGlo assay, in single point, at 2uM, 72h; a lower Z score goes with more inhibition; type: functional, Erythrocyte; settings: timepoint 72 hour

Structure (SMILES) | % Inhibition [%] | Z score
CCOc1ccc(C(=O)N2CCC3(CC2)OC(=O)c2ccccc23)cc1OCC | -32 | 6.01
O=C(Nc1ccc(F)cc1)Nc1cccc(-c2cc3cc(F)ccc3[nH]2)c1 | 10 | -1.64
Cc1nc(C(=O)NCCCN2CCOCC2)c(-c2ccccc2Cl)s1 | 5 | -0.71
c1ccc(-n2nnnc2C2(N3CCCC3)CCCC2)cc1 | -12 | 1.7
CCc1ccnc(CNC(=O)[C@@](C)(O)CCc2ccccc2)c1 | -4 | 0.73
O=S(=O)(NCc1nccnc1-c1ccoc1)c1ccc(-n2cccn2)cc1 | -1 | 0.17
CCCn1ncc(CN2C[C@H](O)[C@@H](N3CCOCC3)C2)c1C | -3 | 0.45
O=C(NC1CCC[C@H]1OCc1ccccc1)c1cncn1-c1cccc(-c2ccccc2C(F)(F)F)c1 (stereo partly drawn) | 20 | -2.48
COC(=O)c1cc(NC(=O)[C@H](C)NC(=O)CC2CCCCC2)cc2[nH]ccc12 | -7 | 0.64
C=C(C)COc1ccc(C(=O)N2C[C@H](N(C)C)C[C@H]2C(=O)O)cc1 | -11 | 1.47
CCN1CC2(CCN(Cc3[nH]c4ccccc4c3C)CC2)OC1=O | 1 | -0.14
COc1ccc(C(=O)N2CCCC2)c(OC2CCN(Cc3cnn(C)c3C)CC2)c1 | -1 | 0.26
O=C([C@H]1CCc2ncc(-c3ccc(F)cc3)n2C1)N1CCCC1 | -15 | 2.82
CC(C)(C(=O)N[C@H]1C[C@@H](C(=O)O)C1)c1ccc(Cl)cc1F | -1 | 0.06
COc1cnc(NC(=O)c2cc[nH]n2)s1 | -6 | 0.66
COCCN(CC(=O)N(Cc1ccccc1)Cc1ccc(C)o1)C(=O)c1ccc(F)cc1 | 5 | -0.79
O=C(NC1CCOCC1)N1CC(OC[C@H]2CCOC2)C1 | 7 | -0.97
COC(=O)c1ccc(N2CCC(C(=O)Nc3nncs3)CC2)nn1 | -12 | 1.24
CCCc1cc(C(=O)N[C@@H](Cn2ccnc2)C(C)C)[nH]n1 | 3 | -0.39
COc1ccc(Cl)cc1NC(=O)N1CCC[C@H](Cn2cnc3cccnc32)C1 | -18 | 2.68
CS(=O)(=O)C1CCCCC1NCCc1cc2ccccc2o1 (stereo not drawn) | -4 | 0.48

Structure (SMILES) | % Inhibition [%] | Z score
O=C(Nc1ccc(-n2cncn2)nc1)N1CCC[C@@H]1CO | 0 | -0.01
N#Cc1nccnc1O[C@H]1CCCN(C(=O)NCc2ccc3c(c2)OCO3)C1 | -1 | 0.1
CNC[C@H](C)C(=O)NC1CCC(C(C)C)CC1 (stereo partly drawn) | -8 | 0.89
COc1cccc(C(=O)N2CCC3(CC2)OC[C@@H](C(=O)NCc2ccncc2)N3C(=O)c2cccc(C)c2)c1 | -11 | 1.96
CS(=O)(=O)Cc1noc(CN2CCCCCc3ccccc32)n1 | -5 | 0.96
Cc1cc(CNC(=O)CC2(O)CCCCC2)ccn1 | -3 | 0.42
Cc1cc(C)c2[nH]c(CN3CCNC(=O)[C@@H]3C)cc(=O)c2c1 | -7 | 0.97
COCc1nc(C(C)C)nc(N2CCN(C(=O)c3ccc(F)cc3)CC2)c1Cc1ccccc1F | 11 | -1.41
O=C(NC[C@H]1CN(C2CC2)CCO1)c1cccc(-n2cnnn2)c1 | -14 | 1.68
CC(C)[C@H]1CN(c2cc(C3CC3)ncn2)C[C@@H]1NC(=O)C1CCOCC1 | 0 | -0.08
C[C@H]1C(=O)NCCCN1Cc1csc(-c2ccoc2)n1 | -10 | 1.5
CO[C@H]1COC[C@@H]1Nc1nc(N)nc(C)c1Cl | 10 | -1.37
COCCN1[C@@H]2CN(Cc3nccs3)C[C@@H]2OCCS1(=O)=O | 7 | -0.85
COC1(c2nc(Cc3noc(C)n3)no2)CCCCC1 | 0 | 0.02
COc1ccc(S(=O)(=O)N2CC(Oc3nccs3)C2)cc1C | -10 | 1.5
Cn1nc(-c2cccs2)cc1CNC(=O)c1cccnc1 | -15 | 1.91
Cc1c(S(=O)(=O)N(C)[C@@H](C)c2cccnc2)cnn1C | -2 | 0.35
Cc1nnc(-n2nc(C(F)(F)F)cc2C)[nH]1 | -2 | 0.27
CC1CN(C(=O)CN(CCC(F)(F)F)C2CCC2)CC(C)O1 (stereo not drawn) | -8 | 1.36
O=S(=O)(CCC1CCCO1)N1CCCC1c1ccncc1 (stereo not drawn) | -16 | 1.99
O=C(NC1(C(=O)NC(c2ccccc2)c2ccccc2)CCCC1)c1ccccn1 | 5 | -0.59

Structure (SMILES) | % Inhibition [%] | Z score
O=C(NCCc1cccnc1)c1cn2ccnc(-c3ccccc3)c2n1 | 35 | -3.96
Cc1cc(C)c(S(=O)(=O)N2C[C@H]3OCCN(C)[C@H]3C2)s1 | -8 | 1.54
COc1ccc(-c2ncc3c(=O)n(CC(=O)Nc4cc(OC)cc(OC)c4)cnc3n2)cc1 | -16 | 1.53
c1ccc2c(-c3cn(C[C@H]4CNCCO4)nn3)ccnc2c1 | -5 | 0.42
CCc1cccnc1-c1noc([C@@H]2CN(C)C(=O)CN2)n1 | -2 | 0.34
CCN(CC1CC1)c1nnc(-c2ccccn2)n1C[C@H]1CCCCO1 | -9 | 1.31
CCCN(CCc1c[nH]c2ccc(NC(=O)c3cc(F)cc(F)c3)cc12)CC1CC1 | 6 | -0.81
CCc1nc(NC2CCC(NC(=O)c3ccccc3F)CC2)c2c(C)nn(-c3ccccc3C)c2n1 (stereo not drawn) | -11 | 1.29
O=C(NCc1cccs1)[C@H]1CN(C(=O)c2ccncc2)CC12CCCCC2 | 27 | -3.03
COc1cccc(CNC(=O)c2ccc(S(=O)(=O)N3CC(C)CC(C)C3)cc2)c1 (stereo not drawn) | -7 | 1.05
O[C@H]1[C@H](NCc2ccccc2)[C@H]2CO[C@H](O2)[C@@H]1N1CCC(Cc2ccccc2)CC1 | -8 | 1.22
COc1ccccc1-c1noc(-c2oc(C)nc2C)n1 | 13 | -1.5
CCOCc1nnc(NCC2(C)CCOCC2)o1 | -2 | 0.26
CN(Cc1cc(C[C@@H]2C[C@H](NC3CCOCC3)C2(C)C)no1)c1ccccc1 | -13 | 1.69
COc1ccc(-c2nc(C)cc(C)c2CNS(=O)(=O)c2cccs2)cc1 | 1 | -0.14
CCOC(=O)N1CC(c2ccccc2)C(c2ncon2)C1 (stereo not drawn) | 0 | 0.05
O=S1(=O)CC[C@H](n2nc(-c3ccco3)cc2NS(=O)(=O)c2ccc(F)cc2)C1 | -3 | 0.53
CN(Cc1ccnc(N(C)C)n1)C[C@H]1CCCCO1 | -1 | 0.12
Cc1n[nH]c(C)c1CNCCc1cn2c(n1)CCCC2 | -5 | 0.53
O=C(Cn1nnc2ccccc21)N1CCOC2CCCCC21 (stereo not drawn) | 5 | -0.56
FCCOc1ccc(-c2ccc(O[C@H]3CCOC3)cc2)nc1 | 4 | -0.48

Structure (SMILES) | % Inhibition [%] | Z score
COc1cc2c(cc1OC)[C@@H](c1c(F)cccc1Cl)N(C(=O)COCc1ccccc1)CC2 | -4 | 0.41
CCc1n[nH]c(-c2cccc(Cl)c2)c1NC(=O)OCc1ccccc1 | -6 | 0.54
CC[C@@H](C(=O)Nc1nccs1)N1CCC(n2c(=O)[nH]c3ccccc32)CC1 | -9 | 0.83
O=C(Nc1ccc(F)c(NC(=O)C2CCCCC2)c1)C1CCC1 | 1 | -0.23
COc1ccc(C2=CC(c3ccc(F)cc3O)=N/C2=N\c2[nH]c(-c3ccc(F)cc3O)cc2-c2ccc(OC)cc2)cc1 | 4 | -0.56
O=C(NC1CCOC1C1CC1)c1ccc(S(=O)(=O)N2CCCCCC2)cc1 (stereo not drawn) | -17 | 3.11
COCC1(N(C)C(=O)c2cccc3[nH]c(C(F)F)nc23)CCC1 | 8 | -1.49
COC1CCN(C(=O)CN2CCCCCC2)CC1 | -16 | 1.62
Cc1cc(NC(=O)Cc2csc(NC(=O)c3ncccn3)n2)no1 | 3 | -0.29
CC(C)CC[C@@]1(C2CCNCC2)NC(=O)N(Cc2ccoc2)C1=O | -1 | 0.17
O=C(NCC1CC1)Nc1nc2ccc(Br)cn2n1 | -28 | 4.53
CCCc1cc(C(=O)NC2(CO)CN(C(=O)OC(C)(C)C)C2)no1 | -9 | 1.76
O=C(c1ccc[nH]1)N1CCN[C@H](c2cccc(Cl)c2)C1 | -16 | 1.94
COc1ncccc1CN1CCC[C@H]1C(F)(F)F | -44 | 5.15
CC(=O)N(C)c1cccc(NC2CC(C)OC2=O)c1 (stereo not drawn) | 7 | -0.99
CC(=O)c1cc(CN2CCC([C@@H](O)CCc3ccccc3)CC2)n(C)c1 | -6 | 1.05
O=C(NC1CCCC1)C12CC1CCN2S(=O)(=O)c1ccccc1 (stereo not drawn) | 9 | -1.02
CC(C)c1ccc(C(=O)N2CCC[C@@H]2CN2CCCCC2)s1 | -2 | 0.24
O=C1CC[C@H](CN2CC(c3ccccc3)(c3ccccc3)CCC2=O)N1 | -11 | 1.25
Cc1nsc(NC(=O)N(C)C2CCOCC2)n1 | -9 | 0.99
Cc1ccc(=O)n(CCc2ccc(F)c(F)c2)n1 | -11 | 1.79
